# The list shows a part of the results.
# Molecular target: T1, OsWOX13 (Oryza sativa, UniProt Q5QMM3 1-267)
# T1 sequence: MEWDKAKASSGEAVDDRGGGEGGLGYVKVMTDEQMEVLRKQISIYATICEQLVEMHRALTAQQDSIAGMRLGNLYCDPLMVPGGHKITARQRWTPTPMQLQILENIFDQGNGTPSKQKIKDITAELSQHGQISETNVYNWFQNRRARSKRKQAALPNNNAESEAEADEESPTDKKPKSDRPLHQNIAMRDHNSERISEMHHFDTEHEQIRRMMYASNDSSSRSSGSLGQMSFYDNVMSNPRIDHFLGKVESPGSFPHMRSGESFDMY
# Test: protein-binding microarray (RPBM); PBS, 2% BSA, 51.3 ng/ul salmon testes DNA, 50 uM zinc acetate, 200 nM TF, 25 C, 1 h; high values mean tight binding
# Settings: protein: recombinant; tags: N-terminal polyhistidine and DsRed monomer fusion (pET32a); label: CyDye5-dUTP incorporated in the synthesized complementary strand; 3' TTTTT single-stranded linker to array surface; dsDNA, one strand shown
# Outline: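 The binding signal is fluorescence intensity per array feature (arbitrary units). Readings came from an Axon 4000B scanner after a washed, 2% BSA-blocked, double-stranded custom Agilent array had been incubated for 1 h at 25 °C with 200 nM protein and 50 µM zinc acetate. The protein was a Ni–NTA-purified transcription factor fused N-terminally to polyhistidine and DsRed, expressed in E. coli BL21-CodonPlus.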
row,Sequence,binding signal
1,ACCTACTACATTGCTGAATTCAATCAGCCGCCGAATCTGCCGGAGTCACCTAGTGCAG,3240 fluorescence intensity (a.u.)
2,TCGTTGTAATTAAATCTTCGAAACAAGGCCACTCCTAGATCGGAGTCACCTAGTGCAG,6230 fluorescence intensity (a.u.)
3,TCCAGAAAGTAATTTAGTTTATTAAAATATTTCTGAAAGTCGGAGTCACCTAGTGCAG,3660 fluorescence intensity (a.u.)
4,TTTATTCTAATTTGAATTGTTCTGGTATGCCAGTACCCGGCGGAGTCACCTAGTGCAG,5670 fluorescence intensity (a.u.)
5,CTCAGATTGGTTCATGAAGCTATTGTTGTTGAAATTCTGTCGGAGTCACCTAGTGCAG,23000 fluorescence intensity (a.u.)
6,GATAAGTAAATTAATTGGAAGAAAGAAATCAGTGGGGAGGCGGAGTCACCTAGTGCAG,13500 fluorescence intensity (a.u.)
7,AATAAATGTACATATGTATAATTAAAATCATCCATACTCACGGAGTCACCTAGTGCAG,6540 fluorescence intensity (a.u.)
8,GCATAGTTTAATTGGTTAGATTTCTCATGGCACCAATGGTCGGAGTCACCTAGTGCAG,28500 fluorescence intensity (a.u.)
9,AATTAATTATCTAAACGTTGCTAAGGCGAGCAAGCTTATACGGAGTCACCTAGTGCAG,27700 fluorescence intensity (a.u.)
10,ACTTGAATAGTGTTAATGCCAATTATCCGAGAACGGAGGCCGGAGTCACCTAGTGCAG,11700 fluorescence intensity (a.u.)
11,ATTTGACGGACATGATATTCTTCATATGGCAAGAGCCGCACGGAGTCACCTAGTGCAG,6460 fluorescence intensity (a.u.)
12,GAAATGATTTAAGAATGATGATTTAGCATGTGTATGTTTACGGAGTCACCTAGTGCAG,26900 fluorescence intensity (a.u.)
13,GTTTAAAGAAATTGATGAAAGAAAAGCTTCATTGTTGGCTCGGAGTCACCTAGTGCAG,6180 fluorescence intensity (a.u.)
14,GTGCGTTGATTGCTACTGCGCTCCAACCACTGCGTTAACTCGGAGTCACCTAGTGCAG,34700 fluorescence intensity (a.u.)
15,CCTGGATTCAGTTGATAAATTATGACTGGCATGCCACTGTCGGAGTCACCTAGTGCAG,4380 fluorescence intensity (a.u.)
16,GGTTGATTGTGAAGTTAATTATTTAACATCTCAATTATAACGGAGTCACCTAGTGCAG,32800 fluorescence intensity (a.u.)
17,CGCCTAATCACATGGCATCATGCCCATGACAGCCGGGGAACGGAGTCACCTAGTGCAG,9840 fluorescence intensity (a.u.)
18,ACCCTAATTCCATCCACCGCTCGATCCAATCTACCCTCTCCGGAGTCACCTAGTGCAG,3910 fluorescence intensity (a.u.)
19,TAGCTAGATATGTAACTTATAAATTGATGGCCACACCTTACGGAGTCACCTAGTGCAG,4000 fluorescence intensity (a.u.)
20,AGTTTATTTATAAATCATGTTTTATTCGTTAAAATGTCGTCGGAGTCACCTAGTGCAG,9650 fluorescence intensity (a.u.)
21,AGTAATCAAATCCAATCAACACCAACCAAAAGGAACAAGGCGGAGTCACCTAGTGCAG,22300 fluorescence intensity (a.u.)

row,Sequence,binding signal
1,TTGTAATGGTGAAATCATGTTCAGTTTATTGTCGTACAAACGGAGTCACCTAGTGCAG,3710 fluorescence intensity (a.u.)
2,TGCATCTCTGTCTGATTGATCAGGCAGGCAGGAAAGTACCCGGAGTCACCTAGTGCAG,20300 fluorescence intensity (a.u.)
3,ATAATGATGGATGCTTATGTCTTATGTCTTCATGCGGTCCCGGAGTCACCTAGTGCAG,21000 fluorescence intensity (a.u.)
4,CATTTCACTTAATGTATAATAGACATCGGCAATCAACTTTCGGAGTCACCTAGTGCAG,5190 fluorescence intensity (a.u.)
5,GTTCCAATTTCAATTAAACTTTCAATTTTGGCGTTAACTACGGAGTCACCTAGTGCAG,14200 fluorescence intensity (a.u.)
6,GGGAGTCGATTAGTTGATTAGGATATAAGCTAAATATACCCGGAGTCACCTAGTGCAG,6080 fluorescence intensity (a.u.)
7,ACAAAATTATGTACCATGACTCCGTGAGCGTAATTTAGTCCGGAGTCACCTAGTGCAG,6610 fluorescence intensity (a.u.)
8,TTTAGACAGTCCCTAAATTAATATCCTACTTTGATTCGGTCGGAGTCACCTAGTGCAG,20800 fluorescence intensity (a.u.)
9,ACACGTAAAATACGTGTAATTGGCCGTAGGACACCGGTCGCGGAGTCACCTAGTGCAG,6270 fluorescence intensity (a.u.)
10,TATGGGATGATTAATTCGATTTCATTTATTCCCACAAGCGCGGAGTCACCTAGTGCAG,8050 fluorescence intensity (a.u.)
11,GATGATTGGTCACAGGAAAATCTAACCAGAAACAATTATTCGGAGTCACCTAGTGCAG,30400 fluorescence intensity (a.u.)
12,AACTAATAATTGGCTATATCTCTAACACTAAAACGTGGCTCGGAGTCACCTAGTGCAG,38600 fluorescence intensity (a.u.)
13,GGAGCCAATCACGACATGGTTTCAAGCGTCCCTTTCAGAGCGGAGTCACCTAGTGCAG,23600 fluorescence intensity (a.u.)
14,AATTAATTGGTTGGAAGCTTCAGAAGTTTGGTTACATACACGGAGTCACCTAGTGCAG,29100 fluorescence intensity (a.u.)
15,GAATGGACTAATTATTTTGCTTGTCAGCACGACGTCAGAACGGAGTCACCTAGTGCAG,4020 fluorescence intensity (a.u.)
16,GAAAATTTAAATTTTAACTGATAAGTATAAACATAAGCGACGGAGTCACCTAGTGCAG,39200 fluorescence intensity (a.u.)
17,CCTTTGATTTCCGGGTAATTCGATCAAGGTCCCTTGAGAACGGAGTCACCTAGTGCAG,13200 fluorescence intensity (a.u.)
18,TAATTTGATTGCATCGGCTTGAATTTGCTCCTGACATGATCGGAGTCACCTAGTGCAG,36800 fluorescence intensity (a.u.)
19,AGCTGTTCCAATTATGAACTCACTAACTTTACATAGAGGTCGGAGTCACCTAGTGCAG,3650 fluorescence intensity (a.u.)
20,GGTTGAAGTTGCACTAATTGAAGCTGCAGTCACAGTTGGACGGAGTCACCTAGTGCAG,11600 fluorescence intensity (a.u.)
21,AAGATGACAGACTTGGGGATTGCATAGTAGTGATTGTTACCGGAGTCACCTAGTGCAG,11000 fluorescence intensity (a.u.)

# — PMC7819943, “Rice protein-binding microarrays: a tool to detect cis-acting elements near promoter regions in rice”
